Drawing on the supplement of paper PMC4604168 (melanoma cell lines), this text covers cell count for twelve molecules.

The list shows a part of the results. Most values come without repeats; read them as rough.

Common to all, as to experiment: cell count relative to DMSO control; melanoma cells; higher = more viable cells
Details in all cases: library dose: standard library concentration; 72 h

The test system of assay [1] is SkMel30.
For assay [2], the system named is SkMel5.
For assay [3], the system named is UACC257.
For assay [4], the system named is UACC62.
Assay [5] deals with WM115.
Assay [6] concerns WM1716.
Assay [7] deals with WM1745.
Assay [8] concerns WM3526.
In assay [9] the test system is WM3619.
Assay [10] concerns WM451Lu.
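Note: cells treated in 1,536-well plates, then fixed and DAPI-stained, with nuclei counted from automated high-throughput microscope images.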

For `COc1cc2ncnc(Nc3ccc(Oc4ccccc4)cc3)c2cc1OC` + Cn1cc(/C=C2\C(=O)Nc3cccnc32)c2ccccc21 [GW441756] (first compound 10 µM, partner dose 2 µM), the cell count turned out to be 79% in [1]; 54.1% in assay [2]; 65.2% in assay [3]; 64.1% in [4]; 55.2% in assay [5]; 77.5% in assay [6]. The cell count in [7] amounted to 40.5%; in [8] it was 57.4%; in assay [9], 38.4%; in assay [10], 73.5%.

Take `Oc1cc(-c2nc(-c3ccccc3)[nH]c2-c2ccncc2)ccc1Cl` + Cc1cc([N+](=O)[O-])ccc1NS(=O)(=O)c1cc(Cl)ccc1Cl [FH535] (first compound 1 µM, partner dose 5 µM): the cell count in [1] was 78.8%; in assay [2], 57.7%; in [3] it was 72.3%; in [4], 63.9%; in [5], 41.3%; in assay [6], 65.9%. The cell count in [7] worked out at 63.3%; in assay [8] it was 47.6%; in assay [9], 78%; in [10], 53.4%.

For the molecule `COC(=O)c1sccc1S(=O)(=O)Nc1ccc(Nc2ccccc2)cc1OC` + O=c1cc(-c2cccc3c2Sc2ccccc2S3)oc(N2CCOCC2)c1 [KU55933] (first compound 5 µM, partner dose 5 µM), the cell count worked out at 104% in assay [1]; 101% in [2]; 95.8% in assay [3]; 92.7% in [4]; 114% in assay [5]; 103% in assay [6]. Further, the cell count was found to be 103% in assay [7], 82.6% in assay [8], 80.3% in assay [9] and 104% in assay [10].

As to `c1cc(-c2cnn3cc(-c4ccc(OCCN5CCCCC5)cc4)cnc23)ccn1` [Dorsomorphin] + O=c1cc(-c2cccc3c2Sc2ccccc2S3)oc(N2CCOCC2)c1 [KU55933] (first compound 2 µM, partner dose 5 µM), the cell count in [1] was determined as 101%; in assay [2], 68.8%; in [3] it was 81.8%; in assay [4], 71.8%; in assay [5], 63.6%; in assay [6] it was 73.5%. Moreover, the cell count was 77% in [7], 65% in assay [8], 97.4% in assay [9] and 75.6% in assay [10].

As to `COC(=O)c1sccc1S(=O)(=O)Nc1ccc(Nc2ccccc2)cc1OC` + Cc1cc([N+](=O)[O-])ccc1NS(=O)(=O)c1cc(Cl)ccc1Cl [FH535] (first compound 5 µM, partner dose 5 µM), the cell count was found to be 77.1% in [1]; 71.8% in assay [2]; 71.6% in assay [3]; 118% in [4]; 108% in assay [5]; 75.5% in assay [6]. Further, the cell count in [7] was determined as 77%; in assay [8], 73.6%; in assay [9], 78.8%; in assay [10], 85.4%.

Regarding `COc1ccc2c(c1)CCC1C2CCC2(C)C(NCCCCCCN3C(=O)C=CC3=O)CCC12` (stereo not given) + O=C(O)C(=O)Nc1sc2c(c1C(=O)O)CCNC2 [TCS401] (first compound 2 µM, partner dose 8.33333 µM), the cell count was determined as 92.5% in assay [1]; 65% in assay [2]; 79.3% in assay [3]; 94.7% in [4]; 72.2% in [5]; 69.9% in assay [6]. Also, the cell count was 67.3% in [7], 76.2% in assay [8], 60.6% in [9] and 74.3% in [10].

Consider `O=S(=O)(c1ccccc1)N(CC(F)(F)F)c1ccc(C(O)(C(F)(F)F)C(F)(F)F)cc1` + Cc1cc([N+](=O)[O-])ccc1NS(=O)(=O)c1cc(Cl)ccc1Cl [FH535] (first compound 7 µM, partner dose 5 µM), for which the cell count in [1] is 82.4%; in [2], 60.4%; in assay [3], 57.1%; in assay [4], 81.9%; in assay [5], 68.5%; in assay [6], 78.5%. Further, the cell count amounted to 62.1% in assay [7], 59.2% in assay [8], 67% in [9] and 74.7% in [10].

Turning to `O=C1NC(=O)/C(=C/c2ccc(-c3ccc(F)cc3O)o2)S1` + Cc1cc([N+](=O)[O-])ccc1NS(=O)(=O)c1cc(Cl)ccc1Cl [FH535] (first compound 5 µM, partner dose 5 µM), the cell count in assay [1] was 80%; in [2] it was 63.2%; in [3], 73.2%; in [4] it was 120%; in assay [5], 95.5%; in [6], 73%. Further, the cell count in assay [7] stood at 71.4%; in assay [8], 68.7%; in assay [9], 81.9%; in [10], 81.2%.

For the molecule `N#Cc1c(O)c2c(-c3ccc(-c4ccccc4O)cc3)csc2[nH]c1=O` + Cc1cc([N+](=O)[O-])ccc1NS(=O)(=O)c1cc(Cl)ccc1Cl [FH535] (first compound 10 µM, partner dose 5 µM), the cell count in assay [1] worked out at 82.2%; in assay [2] it was 79.3%; in assay [3] it was 78%; in assay [4], 103%; in [5], 80.5%; in assay [6] it was 90.4%. In addition, the cell count in assay [7] was determined as 78.3%; in [8], 63.7%; in assay [9], 77.5%; in assay [10], 86.4%.

On to `COC(=O)c1sccc1S(=O)(=O)Nc1ccc(Nc2ccccc2)cc1OC` + c1cc(-c2cnn3cc(-c4ccc(OCCN5CCCCC5)cc4)cnc23)ccn1 [Dorsomorphin] (first compound 5 µM, partner dose 2 µM), for which the cell count in assay [1] turned out to be 87.2%; in [2], 84.7%; in assay [3], 61.8%; in assay [4], 62%; in assay [5] it was 67.1%; in [6], 69%. The cell count in assay [7] stood at 68.2%; in assay [8], 79.7%; in assay [9] it was 70.6%; in [10], 73.6%.

Take `COC(=O)c1sccc1S(=O)(=O)Nc1ccc(Nc2ccccc2)cc1OC` + CC(C)CCN1c2nc(Nc3cc(F)c(O)c(F)c3)ncc2N(C)C(=O)C1C [BID1870] (first compound 5 µM, partner dose 1 µM): the cell count in [1] was determined as 78.5%; in assay [2] it was 70.9%; in assay [3], 65.4%; in assay [4] it was 87%; in assay [5] it was 92.5%; in [6], 62.3%. In addition, the cell count in assay [7] was 107%; in assay [8] it was 54.1%; in [9] it was 71.6%; in [10], 81.4%.

For `O=S(=O)(c1ccccc1)N(CC(F)(F)F)c1ccc(C(O)(C(F)(F)F)C(F)(F)F)cc1` + O=C(O)C(=O)Nc1sc2c(c1C(=O)O)CCNC2 [TCS401] (first compound 7 µM, partner dose 8.33333 µM), the cell count stood at 135% in assay [1]; 103% in assay [2]; 80.9% in [3]; 106% in assay [4]; 93.8% in [5]; 97.9% in assay [6]. Moreover, the cell count in assay [7] is 88.8%; in [8], 94.7%; in [9] it was 92.6%; in [10] it was 107%.
